Screen size: about 310,000 compounds; about 14,000 (4.5%) showed an effect of 50% or more. Effects have a minus sign here. The list shows a part of the results.
Molecular target: human ether-à-go-go-related gene (hERG) potassium channel (human, UniProt Q12809)
Assay: primary screen, population patch clamp on CHO cells stably expressing hERG
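Note: peak tail current of the secondary pulse compared with the same well before compound.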

Sequence of human ether-à-go-go-related gene (hERG) potassium channel (Q12809 whole entry, looked up): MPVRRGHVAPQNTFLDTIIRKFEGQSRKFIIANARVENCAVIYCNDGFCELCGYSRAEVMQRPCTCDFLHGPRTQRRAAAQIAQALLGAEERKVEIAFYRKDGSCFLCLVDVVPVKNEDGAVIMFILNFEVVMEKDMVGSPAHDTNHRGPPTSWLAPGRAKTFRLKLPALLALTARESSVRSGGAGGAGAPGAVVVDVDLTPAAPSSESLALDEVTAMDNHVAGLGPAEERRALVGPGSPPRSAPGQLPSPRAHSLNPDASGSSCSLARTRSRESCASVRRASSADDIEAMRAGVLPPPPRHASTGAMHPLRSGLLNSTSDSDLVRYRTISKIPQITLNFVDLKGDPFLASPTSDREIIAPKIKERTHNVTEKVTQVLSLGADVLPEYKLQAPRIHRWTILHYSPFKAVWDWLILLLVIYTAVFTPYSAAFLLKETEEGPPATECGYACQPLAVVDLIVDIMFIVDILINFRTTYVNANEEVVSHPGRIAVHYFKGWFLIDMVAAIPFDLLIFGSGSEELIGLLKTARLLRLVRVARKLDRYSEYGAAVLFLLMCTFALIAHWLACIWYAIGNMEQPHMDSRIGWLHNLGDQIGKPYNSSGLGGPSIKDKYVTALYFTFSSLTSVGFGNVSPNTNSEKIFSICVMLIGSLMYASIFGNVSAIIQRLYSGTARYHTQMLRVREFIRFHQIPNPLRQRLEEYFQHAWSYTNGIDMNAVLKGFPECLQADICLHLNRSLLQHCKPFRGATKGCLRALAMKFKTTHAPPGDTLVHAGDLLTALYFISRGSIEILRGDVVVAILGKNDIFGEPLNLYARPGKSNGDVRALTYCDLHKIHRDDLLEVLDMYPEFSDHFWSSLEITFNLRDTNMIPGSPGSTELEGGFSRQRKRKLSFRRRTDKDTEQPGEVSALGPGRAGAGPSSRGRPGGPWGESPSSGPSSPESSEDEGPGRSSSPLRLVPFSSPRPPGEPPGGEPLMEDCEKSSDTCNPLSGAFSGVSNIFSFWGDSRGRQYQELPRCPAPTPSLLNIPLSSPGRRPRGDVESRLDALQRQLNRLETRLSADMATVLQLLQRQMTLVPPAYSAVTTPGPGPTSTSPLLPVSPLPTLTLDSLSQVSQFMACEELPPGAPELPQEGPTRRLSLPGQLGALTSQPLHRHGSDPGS

| SMILES | hERG current change (%, negative = inhibition) at 10uM |
| --- | --- |
| O=c1cc([O-])n(C2CCCCCC2)c(=O)[nH]1.[NH4+] | 7.16% |
| CCn1ncc([N+](=O)[O-])c1C(=O)Nc1nc2cccc(C)c2s1 | 0.94% |
| NNC(=O)CN1C(=O)Nc2ccc(Br)cc2C1c1ccccc1 (stereo not shown) | 5.62% |
| CCOC(=O)N1CCN(Cc2oc(CO)cc(=O)c2O)CC1 | 14.7% |
| CCOC(=O)c1nn(-c2ccc(C)cc2)c(=O)cc1OCC(=O)Nc1ccc(OC)cc1 | 4.25% |
| Cc1ccc(NC(=O)CC(=O)Nc2ccc(C)cc2)cc1 | 25.8% |
| CCCCCCCCCCCCC(=O)CCCCC(=O)O | -2.67% |
| COc1ccccc1N1CCN(C2CCN(C(=O)COc3ccccc3)CC2)CC1 | -25.4% |
| COc1cccc(CC2(CO)CCN(Cc3ccc4cccc(F)c4n3)CC2)c1 | -64.4% |
| COC(=O)c1[nH]c2ccccc2c1NC(=O)CN1CCCCCC1 | -21.5% |
| CC1(C(=O)O)CCC(C(=O)N2CCOCC2)C1(C)C (stereo not shown) | 6.48% |
| CCc1nnc(NC(=O)c2cccs2)s1 | 9.54% |
| CCOCCCNC(=O)CNC(=S)N(Cc1ccccc1F)C1CCCCC1 | -10.8% |
| COc1ccc(OC)c(NC(=O)Cc2nn(C)c(=O)c3ccccc23)c1 | 3.73% |
| CC(C)(C)OC(=O)N/N=C\c1ccc([N+](=O)[O-])s1 | -0.286% |
| O=C(O)CCSc1ccc2ccccc2n1 | 0.579% |
| COC(=O)c1c(NC(=O)CN(C)CC(=O)Nc2ccc(C)cc2)sc2c1CCC(C)C2 (stereo not shown) | -26.7% |
| O=C1CC(c2ccccc2)CN1S(=O)(=O)c1ccccc1 (stereo not shown) | -20.1% |
| COC(=O)/C=C1/C(=O)N/C(=N\c2nc(C)cc(C)n2)N1c1ccc(OC)cc1 | 9.17% |
| COC(=O)CSCC(=O)Nc1cc2c(cc1C(C)=O)OCO2 | 10.2% |
| COc1ccc2[nH]c(=O)c(COC(=O)c3cccs3)cc2c1 | -4.96% |
| CCOc1cccc(C(=O)Nc2ccc(NC(=O)c3cc4ccccc4o3)c(OC)c2)c1 | 20.5% |

| SMILES | hERG current change (%, negative = inhibition) at 10uM |
| --- | --- |
| Cc1ccc2nsnc2c1S(=O)(=O)N1CCN(C(=O)C2CCCO2)CC1 (stereo not shown) | 2.61% |
| O=C(NCc1ccccc1Cl)c1ccc(NC2=NC3CS(=O)(=O)CC3S2)cc1 (stereo not shown) | -6.66% |
| COc1ccccc1CC(=O)NC(=O)c1ccccc1O | 44.3% |
| COc1cc(/C=C/C(=O)O)cc(S(=O)(=O)NCc2ccco2)c1OC | 12.5% |
| O=C1C(=O)c2ccccc2C([O-])=C1[n+]1ccccc1 | -0.885% |
| COc1ccc(NC(=O)c2cc(=O)c3ccccc3o2)cc1Cl | 30% |
| Cc1cc(C)c(OCC(=O)Nc2cccc(NC(=O)c3ccco3)c2)c(Br)c1 | 1.79% |
| N#Cc1cc(C(=O)c2cc(Cl)ccc2O)cn(-c2ccccc2)c1=O | -24.8% |
| COc1ccccc1N1CCN(CC(=O)Nc2ccc(S(=O)(=O)N3CCCCCC3)cc2)CC1 | -28.7% |
| Nc1nc(NC(=O)/C=C/c2ccccc2)nn1-c1ccccc1 | -32.6% |
| CC(Cc1cccs1)NC(=S)Nc1ccc(Cl)c(Cl)c1 (stereo not shown) | -5.59% |
| O=C(CSc1nc(-c2ccco2)cc(C(F)(F)F)n1)Nc1ccc(C(=O)N2CCOCC2)cc1 | -4.46% |
| Cc1ccc(C2C(=O)N(C3CCC(C)CC3)CC(=O)N2C2CCCC2)cc1 (stereo not shown) | -35.5% |
| CCOC(=O)c1c(C)[nH]c(C)c1S(=O)(=O)N1CCN(c2ccc(F)cc2)CC1 | -39.1% |
| CC(=O)c1cc(C#N)c(NCc2cc(-c3ccccc3)no2)nc1C | 12.2% |
| CC(C)c1ccc(NC2=CC(=O)CC(C)(C)C2)cc1 | 12.6% |
| Cc1ccc(C)c(N(C(=O)c2snc(C(N)=O)c2N)C(C(=O)NCC2CCCO2)c2cccs2)c1 (stereo not shown) | -10.8% |
| CCOc1ccc(CC(C(N)=O)C(N)=O)cc1CN(C)C | 3.02% |
| CCOC(=O)c1cccc(NC(=O)CCn2c(=O)oc3ccccc32)c1 | -26.4% |
| N=C1C(c2ccccc2)=C(O)CN1NC(=O)c1ccccc1 | 13.1% |
| CC1CN(S(=O)(=O)c2ccc(CN3C(=O)c4cccnc4C3=O)s2)c2ccccc2O1 (stereo not shown) | -11.5% |
| O=C(NC(NNc1ccc([N+](=O)[O-])cc1)(C(F)(F)F)C(F)(F)F)c1ccc(F)cc1 | -2.67% |

| SMILES | hERG current change (%, negative = inhibition) at 10uM |
| --- | --- |
| O=C(/C=C/c1ccccc1)OCc1cncs1 | 10.6% |
| C[C@@]12C(=O)N(CC3CCCO3)CC(=O)N1[C@H]1c3ccccc3OC[C@@H]1[C@@H]2c1ccccc1 (stereo partly shown) | 1.11% |
| NC(=O)c1ccsc1NC(=O)COC(=O)c1c(F)cccc1Cl | -18.8% |
| O=C(NN=C1CCCCCCC1)c1ccccn1 | 2.74% |
| COc1ccc(OCCCC(=O)NCCc2ccc(OC)c(OC)c2)cc1 | 23.8% |
| CC(NC(=O)Nc1cccc(Cl)c1)C(c1cccs1)N1CCCC1 (stereo not shown) | -22.8% |
| CNC(=S)NCC(O)c1ccc([N+](=O)[O-])cc1 (stereo not shown) | 5.5% |
| O=C(Nc1ccc(CSc2ccccc2)cc1)c1ccc(CN2CCOCC2)cc1 | -4.34% |
| Cc1ccc(C(=O)NCC2CCCN2S(=O)(=O)c2cccs2)cc1C (stereo not shown) | -16.8% |
| CCN(CC)S(=O)(=O)c1ccc(NC(=O)CNC2CCCCC2)cc1.O=C(O)C(=O)O | -7.08% |
| O=C(CSc1ccc(-c2ccco2)nn1)NCc1ccccc1 | -12.9% |
| CCOC(=O)N1CCN(C(=S)Nc2ccc(C)cc2C)CC1 | 5.08% |
| COc1ccc2c(c1)c(=O)oc1c(C)c(OC(C)C(=O)NCC3CCC(C(=O)O)CC3)ccc12 (stereo not shown) | 13.7% |
| CCn1cc(CN2CCCC(C(=O)Nc3ccc(-c4cscn4)cc3)C2)c(C)n1 (stereo not shown) | -8.71% |
| COC(=O)c1ccc(CSc2nc(C)nc3c2c(=O)n(C)c(=O)n3C)o1 | 14.7% |
| CC(C)CCn1c(SC(C)C(=O)NC2CC2)nc2ccccc2c1=O (stereo not shown) | 5.98% |
| CCOc1cc(/C=N/O)ccc1OCC(=O)Nc1cccc(C)c1 | 7.84% |
| CCC(=O)Nc1ccc(C2C(=O)c3ccccc3C2=O)cc1 | 4.71% |
| Cc1cccc(NC(=O)CSc2nc3nc4c(cc3c(=O)n2-c2ccccc2)CCCC4)c1 | -5.76% |
| CC(=O)c1ccc(NC(=O)N2C[C@H]3C[C@@H](C2)c2cccc(=O)n2C3)cc1 | 0.474% |
| Cc1cc(C(=O)COC(=O)c2csc3c2CCCC3)c(C)n1C | 22.1% |
| COC(=O)c1ccc(CN2CCC(CO)(Cc3ccc(OC)cc3)CC2)cc1 | -66.1% |

| SMILES | hERG current change (%, negative = inhibition) at 10uM |
| --- | --- |
| CCNC(=S)Nc1ccc(S(=O)(=O)Nc2cc(C)nc(C)n2)cc1 | 25.1% |
| O=C(c1cccc(S(=O)(=O)NCc2ccccc2)c1)N1CCN(c2ccc(F)cc2)CC1 | -58.1% |
| CCOC(=O)C1CCN(C(=S)Nc2cc(OC)c(OC)cc2C(=O)OC)CC1 | -10.9% |
| O=C(CSc1ccccc1)N1CCN(S(=O)(=O)c2ccccc2F)CC1 | -23.9% |
| CC(=O)Nc1ccc(S(=O)(=O)Nc2nc3ccc([N+](=O)[O-])cc3s2)cc1 | 22.2% |
| CCCC(=O)N(CCN1CCOCC1)c1nc2c(OC)ccc(OC)c2s1.Cl | -15.5% |
| N#Cc1ccc(NC(=O)COC(=O)CNC(=O)C2CCCCC2)cc1 | -18.8% |
| COCCNC(=O)C(c1ccc(C)cc1)N(C(=O)C(=O)NC1CCCC1)c1ccc2c(c1)OCCO2 (stereo not shown) | 26% |
| CN(C)S(=O)(=O)c1cccc(COC(=O)c2cnccn2)c1 | 15.6% |
| CCOc1ccc(Cl)cc1CSc1ncn[nH]1 | -4.67% |
| O=C(CSCc1ccc(F)cc1)Nc1ccc(N2CCOCC2)cc1N1CCOCC1 | -47.4% |
| CS(=O)(=O)N(CC(=O)NCc1ccc(Cl)cc1)C1CCCCC1 | -26.1% |
| CC(=O)Nc1ccc(N(C(=O)c2ccco2)C(C(=O)NC2CCCC2)c2ccc(N(C)C)cc2)cc1 (stereo not shown) | -2.55% |
| CCCCC(OC(=O)c1cc2occc2n1C)C(=O)NCC1CCCO1 (stereo not shown) | -31.8% |
| COc1cccc(CNc2ccc(Br)cn2)c1O | -0.282% |
| O=C(NCc1ccccc1Cl)C(=O)c1c[nH]c2ccccc12 | 5.17% |
| COc1ccc(C(=O)OCC(=O)NCC2CCCO2)cc1[N+](=O)[O-] (stereo not shown) | 2.12% |
| Cc1ccccc1-c1nnc(SCc2ccc(F)cc2)o1 | 6.05% |
| Cc1cccc(OCC(=O)Nc2cc(C)on2)c1 | -8.07% |
| O=C(c1ccccc1)c1ccc(NCCCn2ccnc2)c([N+](=O)[O-])c1 | -81.3% |
| CCOC(=O)[C@H]1[C@H]2COc3ccc(C)cc3[C@@H]2N2C(=O)[C@@H](CO)NC(=O)[C@@]12C | 11.6% |
| c1ccc(CN2CCN(c3ncccn3)CC2)cc1 | 11.6% |
